Laboratory results as given in US20090305982A1 (Pieris, published 2009).

Key:
[1] = molecular target: T1, IL-4 receptor alpha-Fc (R&D Systems) (human, UniProt P24394 26-232); test: competition ELISA: 15 nM IL-4 receptor alpha-Fc pre-incubated with the mutein, free receptor caught on coated IL-4 (20 ug/ml), detected with anti-human-Fc-HRP
T1 construct: Bought Fc fusion

[2] = molecular target: T1, IL-4 receptor alpha-Fc (R&D Systems); test: SPR (Biacore), IL-4 receptor alpha-Fc captured via anti-human Fc, mutein injected
[3] = molecular target: T1, IL-4 receptor alpha-Fc (R&D Systems); test: competition ELISA: IL-4 receptor alpha-Fc (15 nM) preincubated with mutein, free receptor caught on IL-4-coated plate (competitor IL-4)

- IC50 (read off the curve) [1]: ~60 nM
- Kd [2]: 37.5 nM
- koff [2]: 0.00517 s⁻¹
- kon [2]: 140000 M⁻¹ s⁻¹
- Ki [3]: 17.3 nM
B1: human tear lipocalin mutein S148.3 J14 (designed binder)
chain: ASDEEIQDVSGTWYLKAMTVDSRCPRAYYGSVTPMTLTTLEGGNLEAKVTMQRIGRSQEVKAVLEKTDEPGKYTASGGRHVAYIIRSHVKDHYIFYSEGLCPGQPVPGVWLVGRDPKNNLEALEDFEKAAGARGLSTESILIPRQSETSSPGSA
notes: N-terminal T7-tag and C-terminal Strep-tag II are part of the characterized protein
